“And” between values parts separate entries of the source, which are not always exact repeats. Equal values may be shown once. Read-outs that look alike come from different tables or passages of the source.
System: peritoneal macrophages (pMP)
Format: in vivo, mice

Row | SMILES | mean macrophagal activity of pMP (monotherapy, infected mice) | mean macrophagal activity of pMP (mouse, in vivo) | increase of pMP phagocytosis (mouse, in vivo) | other results
1 | NCC[C@H](O)C(=O)N[C@@H]1C[C@H](N)[C@@H](O[C@H]2O[C@H](CN)[C@@H](O)[C@H](O)[C@H]2O)[C@H](O)[C@H]1O[C@H]1O[C@H](CO)[C@@H](O)[C@H](N)[C@H]1O [Amycacin, amycacin] | 193.42 | – | – | decrease of pMP activity (TB drug in combination with the new treatment vs TB drug monotherapy): 2.8 fold; mean macrophagal activity of pMP (TB drug in combination with the new treatment, infected mice): 68.29
2 | CC[C@@H](CO)NCCN[C@@H](CC)CO [Ethambutol, ethambutol] | – | 106.35 and 81.95 | – | –
3 | NNC(=O)c1ccncc1 [Isoniazid, isonicotinic acid hydrazide] | – | 77.66 and 66.54 | – | –
4 | CC1COc2c(N3CCN(C)CC3)c(F)cc3c(=O)c(C(=O)O)cn1c23 (stereo not shown) [Ofloxacin] | – | 95.14 and 111.66 | 1.2 fold | –
5 | CO[C@H]1/C=C/O[C@@]2(C)Oc3c(C)c(O)c4c(c3C2=O)C2=NC3(CCN(CC(C)C)CC3)NC2=C(NC(=O)/C(C)=C\C=C\[C@H](C)[C@H](O)[C@@H](C)[C@@H](O)[C@@H](C)[C@H](OC(C)=O)[C@@H]1C)C4=O [Rifabutin, rifabutin] | – | 66.88 and 83.55 | 1.3 fold | –
6 | NC(=S)NN=Cc1ccncc1.[O-][Cl+3]([O-])([O-])O [new treatment] | 132.41 | – | – | –

Source: US9750727B2 (priority 2010, dated 2017)
